In the supplement of paper PMC11417369:
± gives the standard deviation of the averaged measurements. Some of the results follow.

The sequences below were run on PfAP2-LT AP2 domain (GST-tagged) (assay: gcPBM binding intensity (ln(normalized median fluorescence intensity)); higher = stronger DNA binding).
Procedure, shortened: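 DNA-binding domains from P. falciparum, fused to GST and produced in E. coli, were put on an Agilent 4 × 180k double-stranded probe array for 1 h in 1× PBS holding 1% milk, 0.2 mg/ml BSA, 0.5% salmon testes DNA and 0.03% Triton X-100. Probes were primer-extended, 36 bp long and drawn from intergenic genomic regions, with negative controls included. After Alexa488 anti-GST antibody detection and a 488 nm scan, binding intensity was set as the highest Masliner-normalised natural-log median intensity across replicate spots of either probe orientation.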

| Sequence | gcPBM binding intensity (ln) |
| --- | --- |
| TTCCTATAAAAAAACACACACATATAAATATAAATA [CACACA_site7154] | 9.16 ± 0.3 |
| AAAAAAAAAAAAAACACACACACACGCAAATACATA [CACACA_site6474] | 10.3 ± 0.27 |
| TCCTTAAATATAAAGGTGCTATGCAGACCTTATGTT [GTGCAC_site9472] | 8.53 ± 0.45 |
| TGGCTTATTCAGAAATGTACACATATAAATATATAT [XGTACX_site3765] | 8.64 ± 0.42 |
| TTTCTTTTAATTATCCGTACACAAACAATAAAATAA [XGTACX_site7841] | 8.34 ± 0.32 |
| AAAATAATATATGTATGTACACAATTATTTATAAGT [XGTACX_site7267] | 8.86 ± 0.41 |
| TGAATAAATAAGATACGTACACACATATACAAAATA [XGTACX_site7758] | 9.29 ± 0.39 |
| TACATAAACATTTATACACACATTATATATACATAT [CACACA_site8028] | 9.14 ± 0.43 |
| TGTGCTCGCTATTACACACTCATTGGGATAAAATTG [CACACA_site2029] | 8.73 ± 0.34 |
| ATATACCATATGCATGGTACACATTTACAACAAAAA [XGTACX_site3142] | 8.71 ± 0.4 |
| AATGTATAAAAGTTTTGTACATATTCTCACACATAT [XGTACX_site965] | 9.1 ± 0.43 |
| TAGTTGTGAGTTACATGTACATGTATTTATTTTTTA [XGTACX_site7088] | 9.04 ± 0.42 |
| ATAACGTAAACAATGTGGACACATACATAAATATAT [XGTACX_site707] | 9.05 ± 0.47 |
| TTTATTAAATAAAGCACACACAACAACTTTTCACAA [CACACA_site4132] | 9.22 ± 0.28 |
| GATAACAATATGTGTACACATTTATATCTCCACATA [CACACA_site5442] | 8.98 ± 0.49 |
| TTACAAAACCGATGTTGTACATTCAATAGATAATGT [XGTACX_site3806] | 8.79 ± 0.44 |
| GTCATCATAATCTATTGTACAAAAATTTATACAGAT [XGTACX_site1059] | 8.74 ± 0.32 |
| TATAAAAATAAGTATACACACAAAATGCGTAACTTT [CACACA_site1295] | 8.86 ± 0.39 |
| TACATTAAACGAATAGTGCAAGAAGTATTCGTATAA [GTGCAC_site9939] | 9.06 ± 0.5 |

| Sequence | gcPBM binding intensity (ln) |
| --- | --- |
| ATAAATACATTAAAATGTACATAAAAATATTACTGG [XGTACX_site1484] | 8.78 ± 0.43 |
| CATATGCGTCTTGCCTTGCACACTTTTATGAAAAAA [CACACA_site2055] | 8.93 ± 0.41 |
| TATAACAAGTAATGGTGTACATTATATTATGTAATA [XGTACX_site2761] | 8.87 ± 0.4 |
| TAATACTTAAAATGTTGTACATAATAATTTTATATT [XGTACX_site5403] | 8.39 ± 0.37 |
| TATATATATATATATACATGCATTTCTCATGTACAT [TGCATGCA_site621] | 9.73 ± 0.4 |
| ATGTACCTTCAAACTACACACAAATGAAGGAACACA [CACACA_site3330] | 9.15 ± 0.38 |
| ATCTAATAAAAATACACACACATATGGTTTGTGAAT [CACACA_site6962] | 9.26 ± 0.38 |
| AAATATTACATACACGCACACATTAAAATATTTAAA [CACACA_site5440] | 9.13 ± 0.36 |
| TTAAAAAATCACAACACACACACACGCAAAAAAAAA [CACACA_site6793] | 10.1 ± 0.21 |
| TGTAGTCTGGAGAAGAGTACACAGTATCTGGTAGCT [XGTACX_site2036] | 8.8 ± 0.43 |
| AAAAATAACATATAAACACACATATAGATTTATATA [CACACA_site7738] | 8.94 ± 0.37 |
| ATATAGAATGTTTACACACGCAATAAATATATATAT [CACACA_site217] | 9.14 ± 0.33 |
| ATGGTATAAAAAAATACACACTTATTTATATTCTTA [CACACA_site6370] | 8.57 ± 0.5 |
| GCGTATCATTTTAAAACACACAGGATTTTATAAGTA [CACACA_site1225] | 8.91 ± 0.41 |
| AATTTTTAGAAGAACACACACATATATATTATGACC [CACACA_site246] | 9.19 ± 0.26 |
| ATAGGAGAAAAAGAATGTACGTATGATGTTGAAAAT [XGTACX_site7779] | 9.19 ± 0.46 |
| ATTATGCACAGACACACACACACACTACTAAAAAAT [CACACA_site7252] | 10.2 ± 0.28 |
| AAGCATTTTTTTTAAAGCCTGTTCATCATCCTTACC [CACACA_negctrl_site129] | 8.68 ± 0.6 |
| AAAAAAAATAAAAATATATATATATATATATAAATA [GTGCAC_negctrl_site676] | 9.16 ± 0.43 |

| Sequence | gcPBM binding intensity (ln) |
| --- | --- |
| AAATAAATAAATAGAGTGCATATATATATATATTTT | 8.99 ± 0.41 |
| ATATACAAAGGATTAACACACATATTATTATAGATA [CACACA_site6966] | 8.89 ± 0.5 |
| CTTTTTATTTATCATACACACACAGAAAAAAAAAAA [CACACA_site7935] | 8.95 ± 0.46 |
| AATATATATATATATATATTTTTGTTAGAATATGGA [CACACA_negctrl_site212] | 8.78 ± 0.22 |
| TCTATTAATTAATATACACACATTATATATATATAT [CACACA_site8815] | 9.07 ± 0.41 |
| ACCGTGGGAGGACACACACACACACGCACATATATA [CACACA_site6289] | 9.99 ± 0.22 |
| AAATAACTTTTAAATACACACGTAAAATATATTGTG [CACACA_site9085] | 8.81 ± 0.39 |
| TACATTATAAATATTACACACTTTATAAAATAATAA [CACACA_site6096] | 8.56 ± 0.42 |
| ATAATATTTTTATGTACACACCTTAATCCTTAAAAG [CACACA_site5881] | 8.77 ± 0.38 |
| TTAACCACTAAAAGTACACACATATATACATATATA [CACACA_site3912] | 8.93 ± 0.37 |
| TCCTTTTTTTTTTATGCACACACAATTATACATTCC [CACACA_site9287] | 9.62 ± 0.4 |
| AAACAAAAAAGAAAAACAATGAGATAAAGAAGAGAA [CACACA_negctrl_site804] | 8.96 ± 0.5 |
| TTTAATTATTTATTTTGTACATATATTATATATATA [XGTACX_site5760] | 8.7 ± 0.45 |
| AAAAGAAAAATATTCACACATATAAATAATATATAA [CACACA_site4201] | 8.69 ± 0.53 |
| ATTTTTATATATATCTGTACTAAAAAAAAAAAAAAA [XGTACX_site5258] | 8.14 ± 0.32 |
| AGAAGTAAAAAAATAGCACACACACTAATACCAACA [CACACA_site8354] | 9.8 ± 0.27 |
| TATTTATATATTTGTTGTACGTATTTATATATTCTT [XGTACX_site3622] | 8.93 ± 0.47 |
| TTATATTAATATTATATTTAAAAATAAAATATAAAT [TGCATGCA_negctrl_site79] | 8.11 ± 0.34 |
| ATTAATTTGATTTTAATAAGAATATTTGTGGGGAAT [GTGCAC_negctrl_site198] | 8.53 ± 0.16 |
